Over roughly 33,000 sequences, “E-score (-0.5 to 0.5)” has its median near -0.013; the highest 2% begin near 0.3. This is one part of the list.
The sequences below were run against T1, Msn1 (UniProt P22148) (assay: PBM E-score (8-mer binding enrichment) (E-score (-0.5 to 0.5)); higher = stronger / more preferred TF binding; most listed sequences are background and not binding sites). Conditions: protein concentration: 200 nM; construct: GST-full length.
T1 sequence: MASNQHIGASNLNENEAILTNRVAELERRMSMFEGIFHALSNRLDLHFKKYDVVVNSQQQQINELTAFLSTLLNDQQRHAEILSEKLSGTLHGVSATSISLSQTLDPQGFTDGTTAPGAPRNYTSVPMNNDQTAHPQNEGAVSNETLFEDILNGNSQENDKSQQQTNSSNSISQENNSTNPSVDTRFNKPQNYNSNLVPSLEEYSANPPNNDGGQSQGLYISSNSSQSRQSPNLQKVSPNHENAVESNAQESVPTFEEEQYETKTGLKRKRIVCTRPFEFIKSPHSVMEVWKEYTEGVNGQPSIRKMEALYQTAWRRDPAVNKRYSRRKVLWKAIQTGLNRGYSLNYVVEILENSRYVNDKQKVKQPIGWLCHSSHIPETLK
How it was run: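 Full-length yeast transcription factors or their DNA-binding domains, GST-tagged and expressed with PURExpress, were applied at about 100-200 nM to universal all-10-mer Agilent arrays. These arrays had been made double-stranded by primer extension on fresh or once-stripped slides. Detection used fluorescent anti-GST, normalisation used masliner, and E-scores for ungapped eight-base words pooled with reverse complements came from the Universal PBM Analysis Suite.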

| Sequence | PBM E-score |
| --- | --- |
| ATGGCACA | 0.0112 |
| CTATGGCA | -0.167 |
| TCATGCCA | -0.0181 |
| CAGCCCTC | -0.302 |
| AGGCGGTG | -0.217 |
| ACTAGCCG | -0.0777 |
| CCTCTGCA | -0.174 |
| CCAACCAA | -0.0724 |
| ACACGGCC | -0.00717 |
| CCTACGAC | 0.171 |
| CGCTGAGC | 0.0366 |
| TCGTAAAA | 0.151 |
| AGTAATAT | 0.239 |
| CTCAGACC | -0.138 |
| GTGAGGTA | -0.141 |
| CAGCCACC | -0.244 |
| CAGGGCTC | -0.317 |
| CACAAAAG | 0.194 |
| CGAGAAAA | 0.188 |
| CTAATCGC | 0.00241 |
| AAGAAGCA | 0.00717 |
| GCGCTACC | -0.0972 |
| TTATCAAA | 0.19 |
| AAGACGCT | 0.0551 |
| TATGAACA | 0.0611 |

| Sequence | PBM E-score |
| --- | --- |
| GCGAGGCA | 0.09 |
| AAATGGAA | 0.131 |
| ATTTAATA | 0.336 |
| CCGCAAGG | -0.0816 |
| ATTGCGGA | 0.145 |
| GAGTCCAC | -0.156 |
| CTAACGCA | -0.121 |
| CGTAGCGA | -0.159 |
| ACTCGAAT | -0.0552 |
| TCAGCGAA | -0.0611 |
| CAGCTTCA | 0.0811 |
| AAACACGA | 0.0528 |
| ATTCTCCG | 0.131 |
| AGATTATA | -0.0345 |
| CACACGAG | -0.0178 |
| ATTTTGTA | 0.209 |
| GGTGGGTA | -0.205 |
| CGCGACCA | 0.127 |
| CACGATTA | 0.145 |
| ATCCTTCG | 0.0168 |
| AAAACTGA | 0.17 |
| GATGGCAC | -0.335 |
| AGTCTGAC | -0.0486 |
| TCACTGAA | 0.112 |
| AAAACTCG | 0.259 |

| Sequence | PBM E-score |
| --- | --- |
| CATCTCTC | -0.0153 |
| ACTCAAAA | 0.102 |
| CACCTCGA | 0.134 |
| AGTCGTTC | -0.114 |
| AGATGGAT | -0.162 |
| ATTAGAGG | -0.174 |
| ATTCTTAC | 0.0603 |
| CCCAGGTC | -0.342 |
| CCTGCGCC | -0.123 |
| ATATAGAC | 0.194 |
| CACCGTAA | 0.0343 |
| CCCCAGAC | -0.163 |
| ACGCAACG | 0.0849 |
| GGAAATAC | -0.0295 |
| AGCGTTAC | -0.226 |
| ATGGAGAA | -0.0525 |
| AGAACGGA | 0.0997 |
| AGTCCGAC | 0.199 |
| CTGCAATC | -0.0887 |
| ATCCGTAG | -0.152 |
| TAAGATGA | 0.0618 |
| GACAATAC | 0.377 |
| CCTCGACA | 0.0222 |
| CTGTCAGA | 0.0132 |
| CTACAGTA | -0.04 |

| Sequence | PBM E-score |
| --- | --- |
| CGACGACC | -0.131 |
| AAGGTTAA | -0.0953 |
| CGCCTTCC | -0.254 |
| ACGTAGCA | -0.0445 |
| GCCCGGCC | -0.22 |
| ATTCCAAC | -0.0416 |
| GCCAACCA | -0.196 |
| CGTGCGTA | 0.0618 |
| AGATTAGG | -0.137 |
| AGCCGGAA | 0.184 |
| AAACATTC | 0.0737 |
| GGCGGATA | -0.117 |
| CGAGCACA | 0.0614 |
| GAATGTAA | -0.0699 |
| CGCGCTAA | 0.0134 |
| AGCCTTTG | -0.104 |
| AACGGAAT | 0.101 |
| ACAGCCGA | -0.16 |
| CTAAGATC | 0.203 |
| GGTAGGTA | -0.152 |
| GCGTCCGA | 0.123 |
| CCCAATAG | -0.0782 |
| AGCGTTTC | -0.0563 |
| GATAGACA | 0.331 |
| CCAGTCGG | -0.209 |

| Sequence | PBM E-score |
| --- | --- |
| ATCCTGTG | 0.00037 |
| ATTAGTAC | 0.228 |
| AAGTATGG | 0.127 |
| ATGGGCGG | -0.0431 |
| AATAATTA | 0.17 |
| CATTAGCA | -0.0502 |
| AGGTGACT | 0.0672 |
| CTTTCCGC | 0.0223 |
| TGACCTAA | 0.231 |
| GCAGATCC | 0.0309 |
| CCACATTC | -0.174 |
| AGGGGGCC | -0.412 |
| AAGAAAGA | 0.122 |
| ACGGTCGG | -0.0232 |
| TGATCGCA | -0.0525 |
| CTAGAAAC | 0.0317 |
| GGTGCCGA | -0.0156 |
| CCATGTAG | -0.0462 |
| ATCTGACA | 0.155 |
| AGCTCTCG | -0.0908 |
| AATGCCCT | -0.0946 |
| ACAGAAAC | 0.0448 |
| CGTATCTA | 0.118 |
| CAGGTAAC | -0.0911 |
| CCCTCAAC | -0.272 |

| Sequence | PBM E-score |
| --- | --- |
| CGATATCG | 0.0659 |
| AGATGAGG | -0.231 |
| AGGAGTGC | -0.102 |
| GAAACCTC | -0.154 |
| AGTGACAA | 0.302 |
| CCTCTCCG | -0.194 |
| TCACGACA | 0.322 |
| ACGACTCG | -0.0266 |
| AGTAGGCA | -0.07 |
| AGTAACCC | -0.0691 |
| TTACGAAA | 0.0138 |
| AACTATTG | 0.0905 |
| AAGCCATT | -0.0471 |
| CCCAAAGC | -0.0964 |
| GATACTAC | 0.0794 |
| ATAGCTTC | -0.134 |
| GAATATAA | 0.08 |
| CTCGGGTC | -0.119 |
| AGGAGGCC | -0.311 |
| CGGTAATA | 0.101 |
| GAGGATAC | -0.0207 |
| CCAGTTCA | -0.105 |
| AATCATTA | 0.107 |
| CCTCAGTA | -0.0965 |
| ATAGTTGC | 0.156 |

| Sequence | PBM E-score |
| --- | --- |
| CAGGTGGC | -0.319 |
| TACAGAAA | 0.189 |
| CGTAGTCA | -0.19 |
| CGACCTCC | 0.0198 |
| ACTTGAAT | 0.0631 |
| ACCAGCCG | -0.0866 |
| AGCTCAAA | 0.0793 |
| CGGTCAAA | 0.142 |
| GGAGGAAC | -0.188 |
| ATAAGGCG | 0.0335 |
| AGGCTTGA | -0.0811 |
| ATCTCAAG | 0.0879 |
| CGACGTGA | -0.047 |
| CGGCACCC | -0.201 |
| CCGGTCAA | 0.127 |
| CATCGCGA | 0.0798 |
| CAAGACTC | 0.0404 |
| CCTACTTC | -0.0262 |
| AAAGGGGT | -0.238 |
| AACAACGG | 0.137 |
| ATATACAC | 0.0119 |
| ATCAGCGC | 0.0726 |
| GCCTCCGA | 0.00799 |
| AGACACTG | 0.0199 |
| CCGCTCAA | 0.018 |

| Sequence | PBM E-score |
| --- | --- |
| CTGCATCA | -0.187 |
| CCTGTGTC | 0.176 |
| AGGGGAAG | -0.241 |
| CGTAGTAC | 0.00492 |
| AGTCAATG | -0.179 |
| CTAAATAG | -0.0809 |
| GATCGGGA | -0.121 |
| GTAAGGCA | -0.123 |
| AGGTCCCG | -0.173 |
| GTCCATCA | 0.257 |
| CACGGCTG | -0.156 |
| CCCCCGGC | -0.346 |
| GATCCCGA | -0.0549 |
| ATATGGAG | 0.12 |
| CTGGGAGA | -0.18 |
| CAGCCCCC | -0.421 |
| AGCTGGGG | -0.212 |
| GTACCGAA | 0.0667 |
| ACCGTACC | -0.22 |
| CGCACCAA | -0.00595 |
| ACGAATTC | -0.0515 |
| GGGATCGA | -0.224 |
| CGTCCTCA | -0.0499 |
| AAAAACAA | 0.204 |
| GGCTGAGA | -0.00423 |

| Sequence | PBM E-score |
| --- | --- |
| ATGCAGAG | -0.253 |
| ATGGCGAA | 0.0465 |
| GACAACTC | 0.298 |
| CCATGGTC | -0.0376 |
| ACCCCCTC | -0.291 |
| CGTCACTA | 0.0773 |
| AGCGGCAG | -0.149 |
| CCAATCAG | -0.199 |
| ATGTACTA | 0.233 |
| ACCTTTAG | -0.0877 |
| CCGTGTTA | -0.183 |
| ACTAAGGC | -0.12 |
| AAAGGTCT | 0.0624 |
| AGAGTGTA | -0.201 |
| ATAGAACA | -0.0421 |
| CCTGTTAA | -0.00221 |
| ATTTCCCG | 0.188 |
| ACGCGGAT | -0.051 |
| ATCACGCA | 0.064 |

From the supplement of paper PMC3334620
